# Data published in the antibiotic and cytotoxicity screens of Wong et al. (2023).
# The list shows a part of the results.
# Assays:
# [1] = test system: HSkMC (human skeletal muscle cells); assay: cytotoxicity call (relative viability < 0.9); settings: 10 µM
# [2] = test system: HepG2; assay: cytotoxicity call (relative viability < 0.9); settings: 10 µM
# [3] = test system: S. aureus RN4220; assay: growth inhibition call (relative growth <= 0.2); settings: 50 µM
SMILES,cytotoxicity call [1],cytotoxicity call [2],growth inhibition call [3]
C[C@@H]1CCCCO[C@H](CN(C)C(=O)Nc2ccc(C(F)(F)F)cc2)[C@@H](C)CN([C@@H](C)CO)C(=O)c2cc(NC(=O)c3ccccc3)ccc2O1,inactive,inactive,inactive
Cc1noc(C)c1NC(N)=O,inactive,inactive,inactive
C[C@H]1CN([C@@H](C)CO)C(=O)c2cccc(NC(=O)c3ccc(-c4nccs4)cc3)c2O[C@@H]1CN(C)Cc1ccc2c(c1)OCO2,inactive,inactive,inactive
C[C@@H]1CCCCO[C@@H](CN(C)CC2CCCCC2)[C@@H](C)CN([C@H](C)CO)C(=O)c2cc(NS(=O)(=O)c3ccccc3)ccc2O1,inactive,inactive,inactive
CC(C)(C)OC(=O)C[C@H]1CC=CC[C@H](CC(=O)N(CCO)Cc2ccccc2)C(=O)N2CCC[C@@H]2COC1=O,inactive,inactive,inactive
COc1ccc(S(=O)(=O)N(C)C[C@@H]2Oc3ccc(NC(=O)CCN4CCOCC4)cc3C(=O)N([C@@H](C)CO)C[C@@H]2C)cc1,inactive,inactive,inactive
COc1ccc2c3c(n(c2c1)C)[C@@H](CO)N(C[C@]13CN(C1)S(=O)(=O)c1cn(cn1)C)C(=O)Nc1ccc(cc1)F,inactive,inactive,inactive
Cc1cc(N2C(=O)CCC2=O)no1,inactive,inactive,inactive
CC(C)NC(=O)N(C)C[C@H]1Oc2ccc(NC(=O)CCCN(C)C)cc2C(=O)N([C@H](C)CO)C[C@H]1C,inactive,inactive,inactive
Cc1noc(C)c1S(=O)(=O)Nc1ccc2c(c1)CC(=O)N([C@@H](C)CO)C[C@@H](C)[C@@H](CN(C)Cc1ccccc1)O2,inactive,inactive,inactive
O=C(NO)c1cn(-c2cccc(C(=O)N3CCC4(CC3)C(=O)NCN4c3ccccc3)c2)nn1,active,active,active
Cc1noc(C)c1NC(=O)Nc1ccc2c(c1)C(=O)N([C@@H](C)CO)C[C@@H](C)[C@H](CN(C)C(=O)C1CCCCC1)OCCCC[C@@H](C)O2,inactive,inactive,inactive
O=c1ccc2c[nH][nH]c-2c1,inactive,inactive,inactive
C[C@H]1CN([C@@H](C)CO)C(=O)c2cc(NS(=O)(=O)c3cn(C)cn3)ccc2O[C@H]1CN(C)Cc1ccncc1,inactive,inactive,inactive
C[C@H]1CCCCO[C@@H](CN(C)C(=O)Nc2ccc(C(F)(F)F)cc2)[C@@H](C)CN([C@@H](C)CO)C(=O)c2cc(NC(=O)NC3CCCCC3)ccc2O1,inactive,inactive,inactive
COc1ccc(S(=O)(=O)Nc2ccc3c(c2)CC(=O)N([C@H](C)CO)C[C@H](C)[C@H](CN(C)S(=O)(=O)c2ccc(OC)cc2)O3)cc1,inactive,inactive,inactive
CC(C)NC(=O)N[C@H]1C=C[C@@H](CC(=O)NCCCN(C)C)O[C@H]1CO,inactive,inactive,inactive
C[C@@H]1CN([C@H](C)CO)C(=O)Cc2cc(NS(=O)(=O)c3cn(C)cn3)ccc2O[C@@H]1CN(C)C,inactive,inactive,inactive
C[C@@H]1CN([C@H](C)CO)C(=O)c2cc(NC(=O)Nc3ccccc3)ccc2O[C@@H](C)CCCCO[C@H]1CN(C)Cc1ccccc1,inactive,active,inactive
C[C@H](CO)N1C[C@H](C)[C@@H](CN(C)C(=O)NC2CCCCC2)Oc2ccc(NS(=O)(=O)c3cn(C)cn3)cc2CC1=O,inactive,inactive,inactive
C[C@H](CO)N1C[C@H](C)[C@H](CN(C)Cc2ccc3c(c2)OCCN3C)OCc2cn(nn2)CCCC1=O,inactive,inactive,inactive
COc1ccc(S(=O)(=O)Nc2ccc3c(c2)C(=O)N([C@@H](C)CO)C[C@@H](C)[C@@H](CN(C)C(=O)Nc2ccc(F)cc2)OCCCC[C@H](C)O3)cc1,inactive,inactive,inactive
C[C@@H]1CCCCO[C@@H](CN(C)S(=O)(=O)c2cn(C)cn2)[C@H](C)CN([C@@H](C)CO)C(=O)c2cc(NS(=O)(=O)c3ccccc3)ccc2O1,inactive,inactive,inactive
Cc1ccc(OCCN)c(Br)c1,inactive,inactive,inactive
COc1ccc2c3c([nH]c2c1)[C@@H](CO)N(C[C@]13CN(CC2CCOCC2)C1)S(=O)(=O)c1cn(cn1)C,inactive,inactive,inactive
CC(C)[Si](C#C[Si](C(C)C)(C(C)C)C(C)C)(O[C@H](C)c1cn(Cc2cccc(Cl)c2)nn1)C(C)C,inactive,inactive,inactive
C[C@@H]1CN([C@H](C)CO)C(=O)CCCn2nncc2CO[C@H]1CN(C)C(=O)Nc1ccc2c(c1)OCCO2,inactive,inactive,inactive
CC(C)NC(=O)N(C)C[C@H]1Oc2ccc(NS(=O)(=O)c3cccs3)cc2C(=O)N([C@@H](C)CO)C[C@H]1C,inactive,inactive,inactive
